Assay results taken from the supplement of paper PMC13016719.
MIC of multidrug-resistant clinical P. aeruginosa isolates by reference broth microdilution, Sensititre or Phoenix panel; µg/mL of the β-lactam, with the inhibitor fixed at 4 µg/mL where named; higher = less susceptible; each panel covers only a few steps. No active / inactive call per row; the paper applies CLSI M100 breakpoints. The methods often differ by one or more steps on the same isolate. Several isolates can come from one patient. PDC is the chromosomal AmpC β-lactamase of the species; the number names its allele. Isolates are numbered anew.

Legend:
Experiment in all cases: Reference broth microdilution (once per isolate) and two commercial panels; inhibitor fixed at 4 µg/mL.
ceftazidime = compound: CC(C)(O/N=C(\C(=O)N[C@@H]1C(=O)N2C(C(=O)[O-])=C(C[n+]3ccccc3)CS[C@H]12)c1csc(N)n1)C(=O)O [ceftazidime] (with: avibactam 4 µg/mL)
imipenem = compound: C[C@@H](O)[C@H]1C(=O)N2C(C(=O)O)=C(SCCNC=N)C[C@H]12 [imipenem]; conditions: reference broth microdilution
ceftolozane = compound: Cn1c(N)c(NC(=O)NCCN)c[n+]1CC1=C(C(=O)[O-])N2C(=O)[C@@H](NC(=O)/C(=N\OC(C)(C)C(=O)O)c3nsc(N)n3)[C@H]2SC1 [ceftolozane] (with: tazobactam 4 µg/mL)

Test System	MIC (ceftazidime; BD Phoenix panel)	MIC (ceftazidime; Sensititre panel)	MIC (ceftazidime; reference broth microdilution)	MIC (imipenem)	MIC (ceftolozane; BD Phoenix panel)	MIC (ceftolozane; Sensititre panel)	MIC (ceftolozane; reference broth microdilution)
Pseudomonas aeruginosa isolate 1 (PDC allele: blaPDC-1)	4 µg/mL	≤ 4 µg/mL	≤ 4 µg/mL	4 µg/mL	2 µg/mL	2 µg/mL	2 µg/mL
Pseudomonas aeruginosa isolate 2 (PDC allele: blaPDC-5)	8 µg/mL	–	≤ 4 µg/mL	–	2 µg/mL	–	2 µg/mL
Pseudomonas aeruginosa isolate 3 (PDC allele: blaPDC-3)	2 µg/mL	–	≤ 4 µg/mL	≤ 1 µg/mL	≤ 1 µg/mL	–	2 µg/mL
Pseudomonas aeruginosa isolate 4 (PDC allele: blaPDC-12)	> 8 µg/mL	–	16 µg/mL	2 µg/mL	2 µg/mL	–	4 µg/mL
Pseudomonas aeruginosa isolate 5 (PDC allele: blaPDC-8)	8 µg/mL	16 µg/mL	≥ 32 µg/mL	> 8 µg/mL	≤ 1 µg/mL	4 µg/mL	8 µg/mL
Pseudomonas aeruginosa isolate 6 (PDC allele: blaPDC-24)	4 µg/mL	16 µg/mL	16 µg/mL	4 µg/mL	2 µg/mL	8 µg/mL	4 µg/mL
Pseudomonas aeruginosa isolate 7 (PDC allele: blaPDC, ftsI change: ftsI_R504C)	> 8 µg/mL	–	16 µg/mL	≤ 1 µg/mL	> 8 µg/mL	–	> 8 µg/mL
Pseudomonas aeruginosa isolate 8 (PDC allele: blaPDC-1)	> 8 µg/mL	–	≥ 32 µg/mL	–	2 µg/mL	–	4 µg/mL
Pseudomonas aeruginosa isolate 9 (PDC allele: blaPDC-8)	2 µg/mL	–	≤ 4 µg/mL	8 µg/mL	≤ 1 µg/mL	–	2 µg/mL
Pseudomonas aeruginosa isolate 10 (PDC allele: blaPDC-34)	4 µg/mL	–	≤ 4 µg/mL	8 µg/mL	2 µg/mL	–	2 µg/mL
Pseudomonas aeruginosa isolate 11 (PDC allele: blaPDC-31)	8 µg/mL	–	16 µg/mL	2 µg/mL	≤ 1 µg/mL	–	8 µg/mL
Pseudomonas aeruginosa isolate 12 (PDC allele: blaPDC-34)	8 µg/mL	–	8 µg/mL	≤ 1 µg/mL	2 µg/mL	–	2 µg/mL
Pseudomonas aeruginosa isolate 13 (PDC allele: blaPDC-31)	8 µg/mL	–	8 µg/mL	–	≤ 1 µg/mL	–	≤ 1 µg/mL
Pseudomonas aeruginosa isolate 14 (PDC allele: blaPDC-1, ftsI change: ftsI_R504C)	> 8 µg/mL	–	≥ 32 µg/mL	> 8 µg/mL	2 µg/mL	–	≥ 16 µg/mL
Pseudomonas aeruginosa isolate 15 (PDC allele: blaPDC-5)	> 8 µg/mL	–	16 µg/mL	2 µg/mL	2 µg/mL	–	2 µg/mL
Pseudomonas aeruginosa isolate 16 (PDC allele: blaPDC-30)	4 µg/mL	≤ 4 µg/mL	≤ 4 µg/mL	4 µg/mL	2 µg/mL	2 µg/mL	≤ 1 µg/mL
Pseudomonas aeruginosa isolate 17 (ESBL gene: blaGES-1, PDC allele: blaPDC-35)	8 µg/mL	–	≤ 4 µg/mL	≤ 1 µg/mL	> 8 µg/mL	–	≥ 16 µg/mL
Pseudomonas aeruginosa isolate 18 (PDC allele: blaPDC-24)	8 µg/mL	≤ 4 µg/mL	≤ 4 µg/mL	> 8 µg/mL	4 µg/mL	≤ 1 µg/mL	2 µg/mL
Pseudomonas aeruginosa isolate 19 (PDC allele: blaPDC-46)	4 µg/mL	–	≤ 4 µg/mL	≤ 1 µg/mL	≤ 1 µg/mL	–	≤ 1 µg/mL
Pseudomonas aeruginosa isolate 20 (PDC allele: blaPDC-3)	4 µg/mL	–	8 µg/mL	4 µg/mL	2 µg/mL	–	8 µg/mL

Test System	MIC (ceftazidime; BD Phoenix panel)	MIC (ceftazidime; Sensititre panel)	MIC (ceftazidime; reference broth microdilution)	MIC (imipenem)	MIC (ceftolozane; BD Phoenix panel)	MIC (ceftolozane; Sensititre panel)	MIC (ceftolozane; reference broth microdilution)
Pseudomonas aeruginosa isolate 21 (PDC allele: blaPDC-3)	4 µg/mL	≤ 4 µg/mL	≤ 4 µg/mL	≤ 1 µg/mL	≤ 1 µg/mL	≤ 1 µg/mL	≤ 1 µg/mL
Pseudomonas aeruginosa isolate 22 (ESBL gene: blaRSC1, PDC allele: blaPDC-3)	> 8 µg/mL	–	8 µg/mL	> 8 µg/mL	≤ 1 µg/mL	–	≤ 1 µg/mL
Pseudomonas aeruginosa isolate 23 (PDC allele: blaPDC-8)	2 µg/mL	–	≤ 4 µg/mL	> 8 µg/mL	≤ 1 µg/mL	–	2 µg/mL
Pseudomonas aeruginosa isolate 24 (PDC allele: blaPDC-15)	8 µg/mL	–	16 µg/mL	≤ 1 µg/mL	≤ 1 µg/mL	–	4 µg/mL
Pseudomonas aeruginosa isolate 25 (PDC allele: blaPDC-30)	4 µg/mL	–	≤ 4 µg/mL	–	≤ 1 µg/mL	–	≤ 1 µg/mL
Pseudomonas aeruginosa isolate 26 (PDC allele: blaPDC-30)	2 µg/mL	≤ 4 µg/mL	≤ 4 µg/mL	≤ 1 µg/mL	2 µg/mL	4 µg/mL	4 µg/mL
Pseudomonas aeruginosa isolate 27 (PDC allele: blaPDC-3)	2 µg/mL	–	≤ 4 µg/mL	4 µg/mL	2 µg/mL	–	2 µg/mL
Pseudomonas aeruginosa isolate 28 (ESBL gene: blaPAC-1, PDC allele: blaPDC-36)	> 8 µg/mL	–	≥ 32 µg/mL	> 8 µg/mL	> 8 µg/mL	–	≥ 16 µg/mL
Pseudomonas aeruginosa isolate 29 (ESBL gene: blaVEB-9, PDC allele: blaPDC-11, carbapenemase gene: blaNDM-1)	> 8 µg/mL	> 16 µg/mL	≥ 32 µg/mL	> 8 µg/mL	> 8 µg/mL	> 8 µg/mL	≥ 16 µg/mL
Pseudomonas aeruginosa isolate 30 (PDC allele: blaPDC-3)	4 µg/mL	≤ 4 µg/mL	8 µg/mL	≤ 1 µg/mL	2 µg/mL	4 µg/mL	4 µg/mL
Pseudomonas aeruginosa isolate 31 (ESBL gene: blaPAC-1, PDC allele: blaPDC-36)	> 8 µg/mL	–	≥ 32 µg/mL	8 µg/mL	> 8 µg/mL	–	≥ 16 µg/mL
Pseudomonas aeruginosa isolate 32 (PDC allele: blaPDC-3)	4 µg/mL	8 µg/mL	≤ 4 µg/mL	8 µg/mL	2 µg/mL	4 µg/mL	2 µg/mL
Pseudomonas aeruginosa isolate 33 (PDC allele: blaPDC-1)	–	≤ 4 µg/mL	≤ 4 µg/mL	2 µg/mL	–	≤ 1 µg/mL	≤ 1 µg/mL
Pseudomonas aeruginosa isolate 34 (PDC allele: blaPDC-8)	2 µg/mL	≤ 4 µg/mL	8 µg/mL	> 8 µg/mL	2 µg/mL	2 µg/mL	4 µg/mL
Pseudomonas aeruginosa isolate 35 (PDC allele: blaPDC-24)	4 µg/mL	–	8 µg/mL	> 8 µg/mL	2 µg/mL	–	4 µg/mL
Pseudomonas aeruginosa isolate 36 (PDC allele: blaPDC-3)	8 µg/mL	8 µg/mL	8 µg/mL	–	≤ 1 µg/mL	≤ 1 µg/mL	≤ 1 µg/mL
Pseudomonas aeruginosa isolate 37 (PDC allele: blaPDC-19a)	8 µg/mL	8 µg/mL	≤ 4 µg/mL	≤ 1 µg/mL	≤ 1 µg/mL	2 µg/mL	≤ 1 µg/mL
Pseudomonas aeruginosa isolate 38 (PDC allele: blaPDC-364)	8 µg/mL	–	8 µg/mL	> 8 µg/mL	≤ 1 µg/mL	–	≤ 1 µg/mL
Pseudomonas aeruginosa isolate 39 (PDC allele: blaPDC-10)	8 µg/mL	16 µg/mL	8 µg/mL	> 8 µg/mL	4 µg/mL	8 µg/mL	4 µg/mL
Pseudomonas aeruginosa isolate 40 (PDC allele: blaPDC-1)	> 8 µg/mL	> 16 µg/mL	≥ 32 µg/mL	2 µg/mL	4 µg/mL	8 µg/mL	8 µg/mL

Test System	MIC (ceftazidime; BD Phoenix panel)	MIC (ceftazidime; Sensititre panel)	MIC (ceftazidime; reference broth microdilution)	MIC (imipenem)	MIC (ceftolozane; BD Phoenix panel)	MIC (ceftolozane; Sensititre panel)	MIC (ceftolozane; reference broth microdilution)
Pseudomonas aeruginosa isolate 41 (PDC allele: blaPDC-1, ftsI change: ftsI_R504C)	> 8 µg/mL	–	≥ 32 µg/mL	> 8 µg/mL	4 µg/mL	–	4 µg/mL
Pseudomonas aeruginosa isolate 42 (PDC allele: blaPDC-8)	2 µg/mL	–	≤ 4 µg/mL	≤ 1 µg/mL	≤ 1 µg/mL	–	≤ 1 µg/mL
Pseudomonas aeruginosa isolate 43 (PDC allele: blaPDC-24)	4 µg/mL	–	8 µg/mL	4 µg/mL	2 µg/mL	–	8 µg/mL
Pseudomonas aeruginosa isolate 44 (PDC allele: blaPDC-1)	1 µg/mL	≤ 4 µg/mL	≤ 4 µg/mL	8 µg/mL	≤ 1 µg/mL	2 µg/mL	≤ 1 µg/mL
Pseudomonas aeruginosa isolate 45 (PDC allele: blaPDC-1)	2 µg/mL	–	≤ 4 µg/mL	–	≤ 1 µg/mL	–	≤ 1 µg/mL
Pseudomonas aeruginosa isolate 46 (PDC allele: blaPDC-5)	> 8 µg/mL	–	8 µg/mL	≤ 1 µg/mL	≤ 1 µg/mL	–	2 µg/mL
Pseudomonas aeruginosa isolate 47 (PDC allele: blaPDC-3)	8 µg/mL	–	≥ 32 µg/mL	8 µg/mL	2 µg/mL	–	8 µg/mL
Pseudomonas aeruginosa isolate 53 (PDC allele: blaPDC-364)	8 µg/mL	–	–	–	≤ 1 µg/mL	–	–
Pseudomonas aeruginosa isolate 65 (PDC allele: blaPDC-8)	8 µg/mL	–	16 µg/mL	–	≤ 1 µg/mL	–	4 µg/mL
Pseudomonas aeruginosa isolate 68 (PDC allele: blaPDC-34)	4 µg/mL	–	≤ 4 µg/mL	–	≤ 1 µg/mL	–	≤ 1 µg/mL
Pseudomonas aeruginosa isolate 78 (PDC allele: blaPDC-53)	4 µg/mL	–	≤ 4 µg/mL	–	≤ 1 µg/mL	–	2 µg/mL
Pseudomonas aeruginosa isolate 87 (PDC allele: blaPDC-1)	> 8 µg/mL	–	> 16 µg/mL	–	≤ 1 µg/mL	–	4 µg/mL
Pseudomonas aeruginosa isolate 94 (PDC allele: blaPDC-6)	4 µg/mL	–	≤ 4 µg/mL	–	2 µg/mL	–	≤ 1 µg/mL
Pseudomonas aeruginosa isolate 96 (PDC allele: blaPDC-6)	8 µg/mL	–	16 µg/mL	–	4 µg/mL	–	4 µg/mL
Pseudomonas aeruginosa isolate 128 (PDC allele: blaPDC-16)	4 µg/mL	–	–	–	≤ 1 µg/mL	–	–
Pseudomonas aeruginosa isolate 130 (PDC allele: blaPDC-37)	8 µg/mL	–	16 µg/mL	–	2 µg/mL	–	4 µg/mL
Pseudomonas aeruginosa isolate 140 (ESBL gene: blaPAC-1, PDC allele: blaPDC-36)	> 8 µg/mL	–	–	–	> 8 µg/mL	–	–
Pseudomonas aeruginosa isolate 152 (PDC allele: blaPDC-41)	4 µg/mL	–	≤ 4 µg/mL	–	4 µg/mL	–	8 µg/mL
Pseudomonas aeruginosa isolate 163 (PDC allele: blaPDC-5)	2 µg/mL	–	≤ 4 µg/mL	–	2 µg/mL	–	4 µg/mL
Pseudomonas aeruginosa isolate 176 (PDC allele: blaPDC-36)	1 µg/mL	≤ 4 µg/mL	≤ 4 µg/mL	–	≤ 1 µg/mL	≤ 1 µg/mL	≤ 1 µg/mL
